In the supplement of paper PMC10126150:
Sequences with one replicate were seen in a single cluster, so their values are uncertain.

Tested on: ATP
Assay: switch fluorescence ratio, 500 uM ATP over buffer (Cy3 cluster intensity, sum of 5 cycles each) (fold (ratio)); higher = stronger signal-on switching upon ATP binding; sequences stand for … in TCGTCGGCAGCGTCAGATGTGTATAAGAGACAGTTTTTTTTTTTTTTTTTTTTTTTTT…TC
Conditions: aptamer strand: ATP DNA aptamer (quencher-CACCTGGGGGAGTATTGCGGAGGAAGG + anchor), 100 nM annealed; ATP concentration: 500 uM; one replicate
Method in brief: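 Switching-strand clusters labelled with Cy3 on a modified Illumina MiSeq flow-cell were annealed to 100 nM quencher-labelled ATP aptamer, imaged in selection buffer, and re-imaged after 15 min with 500 uM ATP at 22 °C. This was done over five cycles with NaOH stripping and re-annealing in between. The fluorescence ratio is summed target-cycle over summed buffer-cycle Cy3 intensity per cluster, averaged per switch-domain sequence, excluding clusters outside 100-1000 RFU.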
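Note: ATP exposure 15 min at 22 °C before imaging.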

Row | Sequence | switch fluorescence ratio
1 | TTTGAACATC | 0.998
2 | AGCGGGTTGT | 0.987
3 | GCCACCAGCT | 1.03
4 | ACACTCTT | 1.03
5 | AAGCAGTCTG | 1.03
6 | AATCGGACT | 1.01
7 | GGTGCGATGT | 1.02
8 | TGGGCCTTCA | 1.44
9 | AGGACTGCGG | 0.957
10 | ATTGGTCTAG | 1.05
11 | AAATAGAATT | 1
12 | GGTAGGACGA | 0.949
13 | TTACTAGTCG | 1.05
14 | CCAATCGGGA | 1.02
15 | CTCGGGGATA | 1.04
16 | TGTGTCGCCA | 1.03
17 | GAAGCCCTCT | 0.992
18 | GCCGCTTCCG | 1.01
19 | GATCCACTGG | 1.03
20 | TTCCGGCCGT | 1.02
21 | CCGTATGTCT | 1.09
22 | ACGCCCACCA | 1.46
23 | AACACAGTCA | 1.05
24 | AGACTGACGT | 1.25
25 | GAGATGCACC | 1.02
26 | GCCGGGAAGC | 1.07

Row | Sequence | switch fluorescence ratio
27 | CCGCTTGGGA | 1.18
28 | GATAAAGCAT | 1.06
29 | TCAGTGGTAC | 1.16
30 | GCGAGTGTTA | 0.99
31 | CACTTACTCT | 1.2
32 | ACAACTCCCT | 1.23
33 | GTATATTGGC | 0.969
34 | TGAATCTACT | 0.993
35 | TTGCCGAAGG | 0.986
36 | CCGGCGTCGT | 1.04
37 | ATTATTGTTA | 1
38 | GACACTCAGC | 1.02
39 | TTAGGTGGTA | 0.955
40 | ATGCTACTGG | 0.971
41 | GGCGCGGCTT | 0.978
42 | TTTAACCTAG | 0.981
43 | TTGAGTGGCC | 1.01
44 | TCTGTGTGTT | 1.05
45 | ATGTCCCGTG | 1.01
46 | GTGGGAGACG | 1.05
47 | ATCAAGGGAA | 1.08
48 | GCTATGCAGG | 1.03
49 | CTTATAAAAT | 0.949
50 | CAAACCAAAC | 1.66
51 | GGCTTTTCGA | 1.02
52 | TGGTCTGAT | 0.979

Row | Sequence | switch fluorescence ratio
53 | CGTATTGTGA | 0.983
54 | GGTTGGACGC | 1.01
55 | GACAAAAAGA | 0.991
56 | GGCCGTAGGA | 0.989
57 | GCCCGAGCCC | 1.11
58 | AGGTATTG | 0.989
59 | GAGCTTCGGA | 0.963
60 | GGAACGGCTT | 0.994
61 | CAAGGATGC | 0.995
62 | GAGGTACTCA | 1.01
63 | CGAAAACGTA | 0.982
64 | ATTTGTTTT | 1.07
65 | CATACTCGAC | 1.26
66 | TAAAATTAGA | 0.974
67 | CATAATGGAT | 1.04
68 | CGATTGCTGA | 0.995
69 | CTGGGCGGGC | 0.954
70 | TGGCCCATCA | 0.958
71 | TGTTTCTGTT | 0.989
72 | CAACCGGCCG | 1.01
73 | CATCTGCTTA | 1.69
74 | TGGAAAAATA | 1
75 | ACAGACACCG | 1.07
76 | CTTCCTGGTT | 0.975
77 | AAAAGACGAG | 1.01
78 | ATGGGAGGT | 0.993

Row | Sequence | switch fluorescence ratio
79 | TTATAAGTTC | 0.969
80 | GGTTCCAAGT | 1.07
81 | GTGAGCTGGG | 0.963
82 | CCGCACTGTA | 2.01
83 | GGTTTTTGAT | 1.02
84 | CTTGGACGGC | 1.01
85 | CACCCGACT | 1.06
86 | CGTTTCGACC | 1.07
87 | CGGTTAATGG | 0.979
88 | TTTGTTCGCC | 1.03
89 | TAGGAAGCGC | 1.07
90 | CTGTGTGATA | 0.994
91 | ATTTTTAGAT | 0.961
92 | TATTCCTTGA | 1.01
93 | CTCCATTGCG | 1.05
94 | GATATAAGGA | 1.02
95 | TTACATTAAT | 1.03
96 | GGTAGGTACC | 0.983
97 | GTCTTGTAAT | 0.946
98 | TTTACGAGGC | 1.09
99 | GAGCAAATGA | 1.23
100 | GAGTGTCATG | 0.971
101 | ATACAAGCTC | 1.06
102 | AAAGACCGGG | 1.01
103 | CGCCAGGAGC | 1.05
104 | CACCTACGAA | 1.34

Row | Sequence | switch fluorescence ratio
105 | CAGTTAGTGC | 1.01
106 | GCGGCAGATC | 1.02
107 | ATAACCGGTG | 1.07
108 | GGCGGGCGGT | 0.977
109 | TAGATGGGTG | 1.02
110 | TGGAACTATT | 0.998
111 | GACGGAGAAG | 1.01
112 | AGGTGAAAAA | 0.972
113 | GTTGACGTAC | 1.48
114 | TAATAAATAG | 0.995
115 | CATGTGTGCT | 0.968
116 | GATGCGTCTC | 0.987
117 | CTCGCGCCCG | 1.06
118 | ATAAGAAAGT | 0.98
119 | AGAACCTCAG | 1.01
120 | GATAGTAACC | 0.971
121 | CTGGTAGCGC | 1.04
122 | AACGTTGTTA | 0.98
123 | CAGGTCGG | 1.06
124 | AACTGGTCGT | 1.02
125 | TAGACGAGCT | 1.03
126 | CAAATGGGGA | 1
127 | GGTGGGCGAC | 1.03
128 | TTGGAGTATT | 1.24
129 | AACAGACGAT | 1.24
130 | CGTCGGGGCC | 0.979

Row | Sequence | switch fluorescence ratio
131 | CATGTCCAAA | 1
132 | GGCGAGGGTT | 1.02
133 | TGATCGTGTA | 0.947
134 | GACACCGGGG | 0.891
135 | TTACTAT | 1.03
136 | CACACTGTGA | 1.02
137 | CTCAGACCCT | 1.08
138 | CGGTCGCAAT | 3.83
139 | TTTAGGACAA | 0.946
140 | TTCGCTAAG | 2.15
141 | GGGACGTAGC | 1.1
142 | AAAATGGT | 1
143 | TGCTTATCCC | 1.37
144 | AAAGATGTGT | 1
145 | AGGAGCTTAT | 1
146 | AACGGGAAAA | 1.1
147 | CGATCTATT | 1
148 | GTTATGCTT | 1.01
149 | ATGTGATTTA | 1.01
150 | GTGAGAGATA | 1.02
151 | GCTTCTGACG | 1.67
152 | AACGGAAAAT | 1.1
153 | GAGTATATGA | 1.03
